Measured values from paper PMC12820563.
This is one part of the list. The list includes weakly bound sequences.

Molecular target: T1, MBP-FoxP3dN (UniProt Q99JB6)
T1 sequence: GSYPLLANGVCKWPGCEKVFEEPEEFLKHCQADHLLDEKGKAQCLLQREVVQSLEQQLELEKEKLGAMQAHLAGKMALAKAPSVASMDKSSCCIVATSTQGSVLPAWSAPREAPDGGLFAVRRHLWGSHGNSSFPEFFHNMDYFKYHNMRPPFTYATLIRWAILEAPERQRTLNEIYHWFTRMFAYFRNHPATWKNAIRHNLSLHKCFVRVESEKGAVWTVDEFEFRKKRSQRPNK
Assay: PD-seq (MBP pull-down with sequencing)
Conditions: 20 mM Tris-HCl pH 7.5, 100 mM NaCl, 1.5 mM MgCl2, 0.4 uM protein, 0.1 uM dsDNA library, 30 min, room temperature, amylose pull-down; high values mean tight binding; double strand, one strand shown

Question: “GATGATTGTTCTCCCAGCTGATGAATTGAACCAGTCGAGTAAACAAATTTTCCTAATCTTTCTGTTCAAGCGCCATCTAC” was tested. Which binding signal (RPM ratio (pull-down/input)) did it give?
Answer: 0.368

Question: Which binding signal (RPM ratio (pull-down/input)) does the source give for “GATGATTGTTCTCCCAGCTGATGAATTCAGACGATCGAGTAAACAAATTTTCCTAATCTTTCTGTTCAAGCGCCATCTAC” here?
Answer: 0.222

Question: With “GATGATTGTTCTCCCAGCTGATGAATTCAAGTAGTCGAGTAAACAAATTTTCCTAATCTTTCTGTTCAAGCGCCATCTAC” as the sequence, how does the binding signal (RPM ratio (pull-down/input)) read?
Answer: 0.369

Question: Which binding signal (RPM ratio (pull-down/input)) does the source give for “GATGATTGTTCTCCCAGCTGATGAATTTGTCACCTCGAGTAAACAAATTTTCCTAATCTTTCTGTTCAAGCGCCATCTAC” here?
Answer: 5.41

Question: For “GATGATTGTTCTCCCAGCTGATGAATTGAATGATTCGAGTAAACAAATTTTCCTAATCTTTCTGTTCAAGCGCCATCTAC”, which binding signal (RPM ratio (pull-down/input)) is on record?
Answer: 0.737

Question: For “GATGATTGTTCTCCCAGCTGATGAATTATCAATCTCGAGTAAACAAATTTTCCTAATCTTTCTGTTCAAGCGCCATCTAC”, which binding signal (RPM ratio (pull-down/input)) is on record?
Answer: 0.36

Question: How did the binding signal (RPM ratio (pull-down/input)) turn out when “GATGATTGTTCTCCCAGCTGATGAATTTGCCGGGTCGAGTAAACAAATTTTCCTAATCTTTCTGTTCAAGCGCCATCTAC” was run?
Answer: 0.457

Question: For “GATGATTGTTCTCCCAGCTGATGAATTGTTCGATTCGAGTAAACAAATTTTCCTAATCTTTCTGTTCAAGCGCCATCTAC”, which binding signal (RPM ratio (pull-down/input)) is on record?
Answer: 0.408

Question: With “GATGATTGTTCTCCCAGCTGATGAATTTTATACGTCGAGTAAACAAATTTTCCTAATCTTTCTGTTCAAGCGCCATCTAC” as the sequence, how does the binding signal (RPM ratio (pull-down/input)) read?
Answer: 0.442

Question: With “GATGATTGTTCTCCCAGCTGATGAATTCTCTGTTTCGAGTAAACAAATTTTCCTAATCTTTCTGTTCAAGCGCCATCTAC” as the sequence, how does the binding signal (RPM ratio (pull-down/input)) read?
Answer: 0.335

Question: “GATGATTGTTCTCCCAGCTGATGAATTGCTGGGGTCGAGTAAACAAATTTTCCTAATCTTTCTGTTCAAGCGCCATCTAC” was tested. Which binding signal (RPM ratio (pull-down/input)) did it give?
Answer: 0.424

Question: Which binding signal (RPM ratio (pull-down/input)) does the source give for “GATGATTGTTCTCCCAGCTGATGAATTATATTATTCGAGTAAACAAATTTTCCTAATCTTTCTGTTCAAGCGCCATCTAC” here?
Answer: 4.44

Question: Which binding signal (RPM ratio (pull-down/input)) does the source give for “GATGATTGTTCTCCCAGCTGATGAATTAATTTGCTCGAGTAAACAAATTTTCCTAATCTTTCTGTTCAAGCGCCATCTAC” here?
Answer: 3.03

Question: With “GATGATTGTTCTCCCAGCTGATGAATTACTTAGATCGAGTAAACAAATTTTCCTAATCTTTCTGTTCAAGCGCCATCTAC” as the sequence, how does the binding signal (RPM ratio (pull-down/input)) read?
Answer: 0.326

Question: Which binding signal (RPM ratio (pull-down/input)) does the source give for “GATGATTGTTCTCCCAGCTGATGAATTGTCTACTTCGAGTAAACAAATTTTCCTAATCTTTCTGTTCAAGCGCCATCTAC” here?
Answer: 0.906

Question: “GATGATTGTTCTCCCAGCTGATGAATTATGTCTATCGAGTAAACAAATTTTCCTAATCTTTCTGTTCAAGCGCCATCTAC” was tested. Which binding signal (RPM ratio (pull-down/input)) did it give?
Answer: 2.44

Question: For “GATGATTGTTCTCCCAGCTGATGAATTAAGCTAGTCGAGTAAACAAATTTTCCTAATCTTTCTGTTCAAGCGCCATCTAC”, which binding signal (RPM ratio (pull-down/input)) is on record?
Answer: 0.894

Question: How did the binding signal (RPM ratio (pull-down/input)) turn out when “GATGATTGTTCTCCCAGCTGATGAATTACAGCTCTCGAGTAAACAAATTTTCCTAATCTTTCTGTTCAAGCGCCATCTAC” was run?
Answer: 0.501

Question: Which binding signal (RPM ratio (pull-down/input)) does the source give for “GATGATTGTTCTCCCAGCTGATGAATTCCGACCATCGAGTAAACAAATTTTCCTAATCTTTCTGTTCAAGCGCCATCTAC” here?
Answer: 0.529

Question: With “GATGATTGTTCTCCCAGCTGATGAATTTAATGGATCGAGTAAACAAATTTTCCTAATCTTTCTGTTCAAGCGCCATCTAC” as the sequence, how does the binding signal (RPM ratio (pull-down/input)) read?
Answer: 0.446

Question: With “GATGATTGTTCTCCCAGCTGATGAATTGGGTCTCTCGAGTAAACAAATTTTCCTAATCTTTCTGTTCAAGCGCCATCTAC” as the sequence, how does the binding signal (RPM ratio (pull-down/input)) read?
Answer: 0.461

Question: With “GATGATTGTTCTCCCAGCTGATGAATTGCGAACATCGAGTAAACAAATTTTCCTAATCTTTCTGTTCAAGCGCCATCTAC” as the sequence, how does the binding signal (RPM ratio (pull-down/input)) read?
Answer: 0.776

Question: With “GATGATTGTTCTCCCAGCTGATGAATTTAAGAAATCGAGTAAACAAATTTTCCTAATCTTTCTGTTCAAGCGCCATCTAC” as the sequence, how does the binding signal (RPM ratio (pull-down/input)) read?
Answer: 0.267

Question: For “GATGATTGTTCTCCCAGCTGATGAATTATCCAGATCGAGTAAACAAATTTTCCTAATCTTTCTGTTCAAGCGCCATCTAC”, which binding signal (RPM ratio (pull-down/input)) is on record?
Answer: 0.189

Question: “GATGATTGTTCTCCCAGCTGATGAATTAGCGTCGTCGAGTAAACAAATTTTCCTAATCTTTCTGTTCAAGCGCCATCTAC” was tested. Which binding signal (RPM ratio (pull-down/input)) did it give?
Answer: 1.08

Question: With “GATGATTGTTCTCCCAGCTGATGAATTGCGATGATCGAGTAAACAAATTTTCCTAATCTTTCTGTTCAAGCGCCATCTAC” as the sequence, how does the binding signal (RPM ratio (pull-down/input)) read?
Answer: 1.1

Question: With “GATGATTGTTCTCCCAGCTGATGAATTTTCGTGCTCGAGTAAACAAATTTTCCTAATCTTTCTGTTCAAGCGCCATCTAC” as the sequence, how does the binding signal (RPM ratio (pull-down/input)) read?
Answer: 0.342

Question: How did the binding signal (RPM ratio (pull-down/input)) turn out when “GATGATTGTTCTCCCAGCTGATGAATTTTGAGGTTCGAGTAAACAAATTTTCCTAATCTTTCTGTTCAAGCGCCATCTAC” was run?
Answer: 0.596

Question: Which binding signal (RPM ratio (pull-down/input)) does the source give for “GATGATTGTTCTCCCAGCTGATGAATTCCGTTTTTCGAGTAAACAAATTTTCCTAATCTTTCTGTTCAAGCGCCATCTAC” here?
Answer: 1.38

Question: “GATGATTGTTCTCCCAGCTGATGAATTAGAATGATCGAGTAAACAAATTTTCCTAATCTTTCTGTTCAAGCGCCATCTAC” was tested. Which binding signal (RPM ratio (pull-down/input)) did it give?
Answer: 0.319

Question: “GATGATTGTTCTCCCAGCTGATGAATTATCACTCTCGAGTAAACAAATTTTCCTAATCTTTCTGTTCAAGCGCCATCTAC” was tested. Which binding signal (RPM ratio (pull-down/input)) did it give?
Answer: 0.476

Question: How did the binding signal (RPM ratio (pull-down/input)) turn out when “GATGATTGTTCTCCCAGCTGATGAATTCGCTTTGTCGAGTAAACAAATTTTCCTAATCTTTCTGTTCAAGCGCCATCTAC” was run?
Answer: 1.88
